Source: PMC4336329 (PLoS ONE, 2015)
About 14,000 (4.5%) of roughly 310,000 compounds showed an effect of 50% or more. Effects have a minus sign here. Some of the results follow.

molecular target: human ether-à-go-go-related gene (hERG) potassium channel (human, UniProt Q12809); assay: primary screen, population patch clamp on CHO cells stably expressing hERG
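Also: peak tail current of the secondary pulse compared with the same well before compound.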

human ether-à-go-go-related gene (hERG) potassium channel, sequence (Q12809 whole entry, looked up): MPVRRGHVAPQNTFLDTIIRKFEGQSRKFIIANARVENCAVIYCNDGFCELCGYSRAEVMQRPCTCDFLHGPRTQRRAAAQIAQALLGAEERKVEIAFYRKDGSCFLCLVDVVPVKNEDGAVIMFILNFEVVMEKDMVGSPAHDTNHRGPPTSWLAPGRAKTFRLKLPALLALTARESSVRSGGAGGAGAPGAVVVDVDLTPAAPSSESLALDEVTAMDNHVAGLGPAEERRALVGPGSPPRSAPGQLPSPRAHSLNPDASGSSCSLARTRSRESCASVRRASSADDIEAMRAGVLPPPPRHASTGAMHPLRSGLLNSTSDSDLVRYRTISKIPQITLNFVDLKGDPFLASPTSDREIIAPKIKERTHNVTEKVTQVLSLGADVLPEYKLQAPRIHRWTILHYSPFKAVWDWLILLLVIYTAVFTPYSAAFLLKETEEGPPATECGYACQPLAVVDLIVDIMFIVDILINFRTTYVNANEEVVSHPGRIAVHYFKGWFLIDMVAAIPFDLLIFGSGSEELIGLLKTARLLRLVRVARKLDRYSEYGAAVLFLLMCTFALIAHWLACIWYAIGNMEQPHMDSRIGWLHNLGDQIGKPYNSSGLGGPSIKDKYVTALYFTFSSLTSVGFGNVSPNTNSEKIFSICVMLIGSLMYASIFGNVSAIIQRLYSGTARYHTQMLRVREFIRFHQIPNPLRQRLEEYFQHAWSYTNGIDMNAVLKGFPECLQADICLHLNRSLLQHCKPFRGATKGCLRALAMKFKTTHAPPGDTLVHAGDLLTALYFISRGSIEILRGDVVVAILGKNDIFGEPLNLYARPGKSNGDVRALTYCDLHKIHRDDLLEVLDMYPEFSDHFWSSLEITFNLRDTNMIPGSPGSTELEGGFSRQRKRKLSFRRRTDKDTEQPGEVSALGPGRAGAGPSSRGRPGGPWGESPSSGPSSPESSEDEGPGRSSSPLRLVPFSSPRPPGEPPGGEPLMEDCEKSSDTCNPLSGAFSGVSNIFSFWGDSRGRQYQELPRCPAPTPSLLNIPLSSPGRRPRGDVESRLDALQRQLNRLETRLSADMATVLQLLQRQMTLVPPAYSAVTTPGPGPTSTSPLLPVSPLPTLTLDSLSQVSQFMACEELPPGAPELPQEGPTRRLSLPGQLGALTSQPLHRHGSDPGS

SMILES	hERG current change (%, negative = inhibition) at 10uM [%]
NS(=O)(=O)c1ccc(CCNC(=O)CCC2COc3ccccc3O2)cc1 (stereo not shown)	-15.5
COc1ccc(CCC(C)NC(=O)Cc2ccc(OC)c(OC)c2)c(OC)c1 (stereo not shown)	11.6
Cn1cccc1CC(=O)NNC(=S)Nc1ccc(Cl)cc1Cl	6.56
c1ccc2c(c1)CCCC2NC1=NCCC1 (stereo not shown)	-2.53
Cc1cccc(NC(=O)CNC(=O)c2cccs2)n1	19.2
CCN1CCN(C(=O)COc2ccc3c(c2)C(=O)CC2(CCN(C(C)=O)CC2)O3)CC1	20.5
COc1ccccc1NC(=O)C(C)Sc1nnc2ccccn12 (stereo not shown)	-3.27
Cc1ccnc(N2C(=O)c3cccc4c([N+](=O)[O-])ccc(c34)C2=O)c1	4.06
Cc1cc(OCC(=O)OCC(=O)NC2CCCCCC2)ccc1Cl	12.3
Cc1ccc(NC2c3ncccc3C(=O)N2Cc2cccs2)cc1 (stereo not shown)	-8.04
Cc1ccc2nc(NC(=O)C3CCN(S(=O)(=O)c4cc([N+](=O)[O-])ccc4Cl)CC3)sc2c1	-5.19
Cc1n[nH]c(=O)c2c(NC(=O)CSc3ccccc3Cl)oc(C)c12	-25.5
CCOC(=O)c1nc(-c2ccc(OC)c(OC)c2)cnc1C#N	13.9
COc1ccccc1N(C(=O)c1snc(C(N)=O)c1N)C(C(=O)NC1CCCC1)c1ccc(N(C)C)cc1 (stereo not shown)	5.58
O=C(CSc1ccc(Cl)cc1)Nc1cccc(-c2nc3ncccc3o2)c1	8.88
CS(=O)(=O)N1CCN(C(=O)c2ccc(F)cc2)CC1	-37.1
c1ccc(Nc2nc(-c3cccs3)cs2)nc1	1.74
Cc1cc(C)nc(OC(=O)c2ccc(Cl)cc2Cl)n1	9.65
CCCCn1nnnc1SCC(=O)N1CCOCC1	4.31
COc1cc(C)c(Cl)cc1S(=O)(=O)NCc1ccccn1	-4.13

SMILES	hERG current change (%, negative = inhibition) at 10uM [%]
COc1cccc(NC(=O)Cn2nnc(C(=O)NCCc3ccccc3)c2N)c1	11.6
COC(=O)c1ccc(-n2cncn2)c([N+](=O)[O-])c1	12
CCCOc1ccc(NCC(=O)Nc2ccc(C)cc2C)cc1	33.3
Cc1ccc(NC(=O)Cn2c(CCC(=O)O)ccc2-c2ccc(Cl)cc2)cc1	10.4
COc1ccc(OC)c(N(CC(=O)Nc2cccnc2)S(C)(=O)=O)c1	14.3
COc1cccc(CC(NC(C)=O)C(=O)NC2CCN(c3c(Cc4ccccc4)c(C)nc4ncnn34)CC2)c1OC (stereo not shown)	0.736
COc1ccc(F)cc1S(=O)(=O)NC(Cc1ccccc1)C(N)=O (stereo not shown)	12.4
O=C(Cc1ccccc1)Nc1ccccc1C(=O)O	8.27
Cc1ccc(S(=O)(=O)Nc2ccccc2C(=O)Nc2nc(-c3ccc(F)cc3)cs2)cc1	9.22
C=CCOc1ccc(C2C(C(=O)c3ccco3)=C(O)C(=O)N2Cc2cccnc2)cc1 (stereo not shown)	5.62
CN1C=CC=C/C1=C1\SC(=S)N(C2CCCCC2)C1=O	-52.3
CCOC(=O)Cc1csc(NC(=O)CCNS(=O)(=O)c2ccc3c(c2)CCC(=O)N3)n1	9.62
CC(C)OC(=O)Cn1c(=O)sc2ccccc21	-5.59
COC(=O)C1C(=O)c2c([nH]c(C(=O)OCCOC(C)C)c2C)CC1C (stereo not shown)	-4.57
CCc1ccc(S(=O)(=O)NCC(O)COc2ccc(OC)cc2)cc1 (stereo not shown)	-15.2
Cc1cc(NC(=O)CSc2nncc(=O)n2N)no1	1.99
Cc1ccc(S(=O)(=O)N2CCN(C(=O)N(C)C)CC2)cc1C	5.33
Nc1nc(SCC(=O)Nc2ccc3c(c2)CCC3)n[nH]1	12.8
O=[N+]([O-])c1ccccc1CCl	11.3
COc1cc(/C=C/C(=O)NCCN2CCOCC2)cc(OC)c1OC	11.4

SMILES	hERG current change (%, negative = inhibition) at 10uM [%]
COc1cccc2cc(C(=O)N3CCN(c4ccccc4F)CC3)c(=O)oc12	-12.3
COc1cc2nc(CN(C)Cc3ccc(C(C)(C)C)cc3)[nH]c(=O)c2cc1OC	-12.6
O=[N+]([O-])c1ccc(NC(=S)N/C(=N/CS(=O)(=O)c2ccccc2)c2ccccc2)cc1	-25.1
CCOc1ccc(NC(=S)Nc2cccc3cnccc23)cc1	-25.6
COc1ccc(NS(=O)(=O)c2ccc3c(c2)n(C)c(=O)n3C)cc1	4.94
CCOc1ccc(N(CC(=O)OC)S(=O)(=O)c2ccc(OC)c(OC)c2)cc1	-35.1
CCc1ccc(OCC(=O)NC2CCCCC2)c(Br)c1	18.6
CC(=O)Nc1ccc(NC(=O)COC(=O)/C(=C/c2ccccc2)n2nnnc2C)cc1	13
O=C(OCc1ccc(Cl)cc1)c1cccnc1Cl	2.37
COc1ccc(CCC2(C)NC(=O)N(C(C)C(=O)N3c4ccccc4CC3C)C2=O)cc1 (stereo not shown)	-44.8
COc1ccccc1N1CCN(C(=O)C2CC(=O)N(c3ccccc3)C2)CC1 (stereo not shown)	-19.9
CC(=O)NC(=S)Nc1ccc(S(=O)(=O)Nc2ncccn2)cc1	14.4
CC(C)NC(=S)N1CCN(S(C)(=O)=O)CC1	6.17
CCCCSCCCNC(=O)c1cn(CC)c2ccc(S(=O)(=O)N3CCOCC3)cc2c1=O	-44.9
COCCSc1nnc(NC(=O)CCS(=O)(=O)Cc2ccccc2)s1	9.51
Cc1ccc(OCC(=O)N2CCCCC2)c(Br)c1	-17.7
COC(=O)c1scc(S(=O)(=O)C(C)(C)C)c1-n1cccc1	11
COc1ccc(N/C(=C/[N+](=O)[O-])SC)cc1	13.2
